Data reported in PMC12136788.
Some of the results follow.

B1: chr16:3727831:3727932:-|CDS|ENSG00000005339|unk|total|mutant (ssRNA)
RNA: GGGAGUUCUACAGUCCGACGAUCCGUCUCACCCCAGACUGGUUCCCCCCACCCCGGACUCGCAGUCACCAUGGCCAGCUCCACCGAUCAGGGACACUUGGGGAACCCCGAACAGAGUGCAAUGCUCCCCCAGCUGAACACCCCCAACAGAGGAUUGAGCAUCA
B2: ENSG00000107863:be:win_2851|CDS|ENSG00000107863|bound_else_gene|NA|bound_elsewhere_windowed (ssRNA)
RNA: GGGAGUUCUACAGUCCGACGAUCGUUGGUGGAAGUAUUCGGCCAUGGAAACAGAUGUAUGUUGUCCUUCGGGGUCAUUCACUUUACCUGUACAAAGAUAAAAGAGAGCAGACGACUCCGUCUGAGGAAGAGCAGCCCAUCAGUCAACAGAGGAUUGAGCAUCA
B3: ENSG00000107863:be:win_5751|CDS|ENSG00000107863|bound_else_gene|NA|bound_elsewhere_windowed (ssRNA)
RNA: GGGAGUUCUACAGUCCGACGAUCACCUGACCAAAUAAACGGAGAAAGCUUCCAGAACGUGAGCAAAAAUGCUAGUUCUGCAGCGAAUGCCCAACCUCAUAAACUGUCUGAAACCCCAGGCAGUAAAGCAGAGUUUCAUCCCUGCAACAGAGGAUUGAGCAUCA
B4: chr11:123942869:123943838:-|CDS|ENSG00000181499|control|control|control (ssRNA)
RNA: GGGAGUUCUACAGUCCGACGAUCCCGCUAUGAGACCCUGAUGAAUGGCCAUGUCUGUUCCCAACUAGUGCUGGCCUCCUGGCUAGCUGGAUUCCUCUGGGUCCUUUGCCCCACUGUCCUCAUGGCCAGCCUGCCUUUCUGUGGCAACAGAGGAUUGAGCAUCA
B5: chr6:52498635:52498743:-|3pUTR|ENSG00000065308|msi1|total|mutant (ssRNA)
RNA: GGGAGUUCUACAGUCCGACGAUCAAAGGGACACGGAUUGUGACAGUUUCACCCCAUUUGUUUCUAACCCCGCUGCCCAGGAUCCGGGUCUGUGGUGUGUUCUGUUUUGUUUUUGGUUUCUCCCUUGUGUCAGUUCUCUUCUGGCAACAGAGGAUUGAGCAUCA
B6: ENSG00000101574:stop:overlap|stop_codon|ENSG00000101574|stop_codon|NA|stop_codon (ssRNA)
RNA: GGGAGUUCUACAGUCCGACGAUCAUCAAGCCAGAUGGGGAAUAUUUGGAGUUGUUUGCUCGAAAUUUACAGCCAGGUUGGACUAGUUGGGGCAAUGAAGUUCUCAAAUUUCAGCAUGUGGAUUAUUUUAUUGCUGUGGAGUCUCAACAGAGGAUUGAGCAUCA
B7: ENSG00000196277:stop:overlap|stop_codon|ENSG00000196277|stop_codon|NA|stop_codon (ssRNA)
RNA: GGGAGUUCUACAGUCCGACGAUCCACCAGUAAGAAAGAGUGUACAAAAGUCUGUUACUUGGUACACUAUCCCACCAACAGUAUAGCUUUUGACUGCUUUCCCAAAGAUUUUUUUUUUUGGCUGUACAGUGGAACUUGGAUUACCAACAGAGGAUUGAGCAUCA
B8: chr2:157736639:157736676:-|3pUTR|ENSG00000115170|msi1_unk|total|mutant (ssRNA)
RNA: GGGAGUUCUACAGUCCGACGAUCCUUCACAUUUGUAUGUGUGCCGACUGUAACUUUUUUUCAGUUCAUAUGCAGAACGUAUUCCGCCAUUACCCACGUGACACCACCGAAUAUAUUACUGAUUCCGAAGCAAAGAUUUCAGUACAACAGAGGAUUGAGCAUCA
B9: chr8:12728900:12729063:-|CDS|ENSG00000154359|control|control|control (ssRNA)
RNA: GGGAGUUCUACAGUCCGACGAUCAACGUGCAUUUCUUACCGGACGGAAGGUCUGUGGUUGAUACAGUUGGAGGAAAGCGGUUUAGGGUUUUAAAAAGAGGAAUGAAAGAUGGAUAUUGCACUGCCGACAUUGAAUAUCUGGAACAACAGAGGAUUGAGCAUCA
B10: chr2:46903789:46903890:-|3pUTR|ENSG00000180398|msi1|total|mutant (ssRNA)
RNA: GGGAGUUCUACAGUCCGACGAUCAAAUUUCUGCAGCUGGCUUGAAUUUCUCCCCAGAAAAUGGGUUUUUCUUUUCUAUUGCACCGUCAGGCUGCAAAUUUCCAAACUUUUAUGCUUUGCUUCCCUUAUUUAUAAGGGAAUGCCCAACAGAGGAUUGAGCAUCA
B11: chr14:50159683:50159784:-|CDS|ENSG00000100485|unk|FALSE|unique (ssRNA)
RNA: GGGAGUUCUACAGUCCGACGAUCGAGGAAAAUACAAAUUUGUGAUAAAGAAGAUACUUGUGAGCACAAGCAUGCAUUUGAAUUAGUAUCCAAAGAUGAGAACAGCAUAAUAUUUGCUGCUAAGUCUGCUGAAGAAAAAAACAACAACAGAGGAUUGAGCAUCA
B12: ENSG00000070961:be:win_3251|CDS|ENSG00000070961|bound_else_gene|NA|bound_elsewhere_windowed (ssRNA)
RNA: GGGAGUUCUACAGUCCGACGAUCAGGAAUUAGCAGAGGAUGUUGAAGAGAUUGAUCACGCUGAAAGGGAGUUGCGGCGUGGCCAAAUCUUGUGGUUUAGAGGUCUGAACAGAAUCCAAACACAGAUUCGAGUGGUGAAUGCAUCAACAGAGGAUUGAGCAUCA
B13: chr21:34512026:34512195:-|three_prime_utr|ENSG00000288711|control|control|control (ssRNA)
RNA: GGGAGUUCUACAGUCCGACGAUCACACUACCGGAUCCUCCGAGGGUGAUGGUUCUCAAGAAGGCAGAAGCAAUGGUGACCAAUAGACCUCCUUAAAGGCUGAGCCGCUGGGCACCUUCCUACUCCUCUCGACCGUGCUAGGAUCAACAGAGGAUUGAGCAUCA
B14: ENSG00000066084:stop:overlap|stop_codon|ENSG00000066084|stop_codon|NA|stop_codon (ssRNA)
RNA: GGGAGUUCUACAGUCCGACGAUCACUGGCAGCCACACAUCUCACCUGCUGGGACAGAACCGGCAUACAUUGAGGGGAAACAAUAGUAAAUGUCUUAGACUUUAAGAAGGAUGCUGGGCUGUGGCACGGCAUGUUUGCGAAUGUCAACAGAGGAUUGAGCAUCA

The binders below were run against T1, UNK ZnF1-6 (called full-length) (human, UniProt Q9C0B0 30-357) (assay: nsRBNS (natural sequence RNA bind-n-seq); RBNS binding buffer (assumed for nsRBNS): 25 mM Tris pH 7.5, 150 mM KCl, 3 mM MgCl2, 0.01% Triton X-100, 500 ug/ml BSA, 20 U/ml SUPERase-In, 4 C; UNK is unkempt and MSI1 is Musashi-1; names of the RNAs are library labels; protein concentration not given here; high values mean tight binding).
T1 sequence: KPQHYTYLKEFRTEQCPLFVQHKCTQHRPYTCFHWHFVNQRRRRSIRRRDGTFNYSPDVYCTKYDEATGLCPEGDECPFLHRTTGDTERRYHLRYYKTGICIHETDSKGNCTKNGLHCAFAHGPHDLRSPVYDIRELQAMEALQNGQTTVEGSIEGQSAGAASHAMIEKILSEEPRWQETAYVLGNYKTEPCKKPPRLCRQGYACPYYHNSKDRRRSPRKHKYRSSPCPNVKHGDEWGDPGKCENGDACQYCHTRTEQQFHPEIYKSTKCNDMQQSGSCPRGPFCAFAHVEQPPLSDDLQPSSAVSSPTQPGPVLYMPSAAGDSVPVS

Q: Which binding signal does the source give for B1 here?
A: Its binding signal is 0.845 enrichment R.

Q: With B2 as the binder, how does the binding signal read?
A: The binding signal was 0.615 enrichment R.

Q: How did the binding signal turn out when B3 was run?
A: Its binding signal is 0.358 enrichment R.

Q: With B4 as the binder, how does the binding signal read?
A: The binding signal was 0.827 enrichment R.

Q: With B5 as the binder, how does the binding signal read?
A: The binding signal was 0.669 enrichment R.

Q: Which binding signal does the source give for B6 here?
A: The binding signal was 0.419 enrichment R.

Q: B7 was tested. Which binding signal did it give?
A: The binding signal was 0.425 enrichment R.

Q: B8 was tested. Which binding signal did it give?
A: The binding signal was 0.241 enrichment R.

Q: With B9 as the binder, how does the binding signal read?
A: The binding signal was 0.742 enrichment R.

Q: How did the binding signal turn out when B10 was run?
A: Its binding signal is 0.715 enrichment R.

Q: Which binding signal does the source give for B11 here?
A: Its binding signal is 0.389 enrichment R.

Q: How did the binding signal turn out when B12 was run?
A: The binding signal was 0.809 enrichment R.

Q: For B13, which binding signal is on record?
A: Its binding signal is 0.707 enrichment R.

Q: B14 was tested. Which binding signal did it give?
A: The binding signal was 1.59 enrichment R.
